# From PMC4336329 (PLoS ONE, 2015)
# The whole screen tested about 310,000 compounds, of which about 2,200 (0.71%) showed an effect of 50% or more. The effect is printed as a negative number. The list shows a part of the results.
# Target: human ether-à-go-go-related gene (hERG) potassium channel (human, UniProt Q12809)
# Assay: primary screen, population patch clamp on CHO cells stably expressing hERG
# human ether-à-go-go-related gene (hERG) potassium channel, sequence (Q12809 whole entry, looked up): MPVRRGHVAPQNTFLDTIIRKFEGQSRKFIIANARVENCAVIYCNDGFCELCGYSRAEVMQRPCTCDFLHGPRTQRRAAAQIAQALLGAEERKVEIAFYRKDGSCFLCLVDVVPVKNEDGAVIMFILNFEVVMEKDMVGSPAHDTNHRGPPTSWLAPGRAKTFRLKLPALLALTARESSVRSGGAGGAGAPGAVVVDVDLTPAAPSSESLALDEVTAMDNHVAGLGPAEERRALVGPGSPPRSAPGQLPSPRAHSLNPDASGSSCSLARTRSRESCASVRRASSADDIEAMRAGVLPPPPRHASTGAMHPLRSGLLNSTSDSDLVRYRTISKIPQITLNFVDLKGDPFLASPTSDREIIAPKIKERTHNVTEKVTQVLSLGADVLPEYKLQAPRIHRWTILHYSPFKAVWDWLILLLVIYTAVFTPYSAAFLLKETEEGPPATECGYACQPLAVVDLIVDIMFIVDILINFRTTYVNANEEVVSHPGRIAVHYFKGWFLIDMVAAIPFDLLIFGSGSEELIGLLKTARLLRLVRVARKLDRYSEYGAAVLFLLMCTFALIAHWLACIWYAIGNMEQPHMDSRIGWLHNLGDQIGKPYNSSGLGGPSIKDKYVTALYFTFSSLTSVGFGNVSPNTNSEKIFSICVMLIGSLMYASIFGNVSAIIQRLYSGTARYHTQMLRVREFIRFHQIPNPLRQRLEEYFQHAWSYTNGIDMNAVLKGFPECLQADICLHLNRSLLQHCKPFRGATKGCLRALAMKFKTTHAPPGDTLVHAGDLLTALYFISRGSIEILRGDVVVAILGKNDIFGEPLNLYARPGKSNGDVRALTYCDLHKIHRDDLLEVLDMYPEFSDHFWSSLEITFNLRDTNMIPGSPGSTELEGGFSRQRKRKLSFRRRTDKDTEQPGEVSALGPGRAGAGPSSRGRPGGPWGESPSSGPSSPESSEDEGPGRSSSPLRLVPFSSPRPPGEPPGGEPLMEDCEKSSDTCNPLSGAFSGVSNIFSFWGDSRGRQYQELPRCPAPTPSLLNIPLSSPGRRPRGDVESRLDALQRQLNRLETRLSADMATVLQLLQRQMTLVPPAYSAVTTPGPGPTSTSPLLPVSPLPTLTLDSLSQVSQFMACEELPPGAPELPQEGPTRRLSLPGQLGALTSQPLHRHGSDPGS
row,Compound,"hERG current change (%, negative = inhibition) at 1uM"
1,O=C(O)CCCn1c(=O)[nH]c2ccccc2c1=O,6.11%
2,COc1cc(CNc2ccc3[nH]c(=O)[nH]c3c2)ccc1OCc1ccc(F)cc1,15.4%
3,CCC(C(=O)N/N=C(\C)c1cccnc1)c1ccccc1 (stereo not shown),8.84%
4,COc1ccc2nc(SCc3nc(N)nc(Nc4ccccc4)n3)[nH]c2c1,-2.91%
5,O=C1C=CC(=O)N1CCCCCCN1C(=O)C=CC1=O,20.7%
6,Nc1cc(Cl)cc(C(=O)O)c1Cl,12.5%
7,COc1cc2c(cc1OC)C(c1ccncc1)CC(=O)N2 (stereo not shown),8.43%
8,c1ccc(-c2csc(-c3ccc(-c4csnn4)cc3)n2)cc1,17.1%
9,O=C(CN1C(=O)NC2NC(=O)NC21)N/N=C/c1ccc(F)cc1 (stereo not shown),-1.01%
10,Cc1nc2cc(NC(=O)Nc3nccs3)ccc2n1C,3.28%
11,COc1cc2c(cc1OC)C1C(C(=O)Nc3ccccc3N3CCN(C)CC3)c3ccccc3C(=O)N1CC2 (stereo not shown),-0.312%
12,O=C(CSc1nnnn1-c1cccnc1)NCc1cccs1,15.2%
13,COc1ccc(CNC(=O)C2CCN(C(=O)c3ccccc3)CC2)cc1,12.9%
14,COC(=O)c1ccc(COC(=O)CNS(=O)(=O)c2ccccc2)cc1,8.43%
15,CCOC(=O)c1cc2c(=O)n3ccccc3nc2n(Cc2ccco2)c1=NC(=O)c1cccc(OC)c1,5.14%
16,Fc1ccc(-c2nnc(Cc3nnc(-c4ccc(F)cc4)o3)o2)cc1,7.24%
17,CCCCn1nnnc1SCC(=O)N1CCN(C(=O)c2ccco2)CC1,-4.83%
18,Cc1cc2c(c(=O)o1)C(C13C=CC(CC1)C3)C(C#N)=C(N)O2 (stereo not shown),-4.19%
19,N#Cc1c(-c2ccccc2)nc2n(c1=O)CCS2,15.1%
20,COc1ccc(N(CC(=O)NC2CCCCCC2)S(=O)(=O)c2ccccc2)cc1Cl,19.2%
21,COc1ccc(C(=O)N/N=C/c2ccc(OC)c(CN3CCc4cc(OC)c(OC)cc4C3C)c2)cc1 (stereo not shown),-85.1%
22,CCOc1ccc(Nc2nc(Cl)nc(NCCO)n2)cc1,19.3%
23,COc1ccccc1NC(=S)NNC(=O)c1ccc(O)cc1,8.94%
24,CCOc1ccc(C)cc1S(=O)(=O)Nc1ccc(Cl)cn1,-0.0375%
25,CN(CC(=O)O)S(=O)(=O)/C=C/c1ccccc1,23.2%
